Source: PubChem BioAssay AID1030 (National Center for Advancing Translational Sciences (NCATS), 2008)
About 16,000 (7.3%) of roughly 220,000 compounds were called active. The shares of active, inactive and inconclusive entries below differ from those in the screen. The call rests on the fitted dose curve; in most records, active means well fitted inhibition curve with a large enough effect (not every such curve was filed as active); inconclusive means small, poorly fitted or top-dose-only effect, or another doubt; inactive means no such curve, though single readings can be large or run the other way. No potency is given beside an inconclusive call; the fits are too rough.

Each molecule was assayed against Aldehyde dehydrogenase 1A1 (Homo sapiens) (UniProt P00352) (assay: qHTS Assay for Inhibitors of Aldehyde Dehydrogenase 1 (ALDH1A1)). Conditions: Purified ALDH1A1, NADH fluorescence, propionaldehyde substrate; series mostly up to 75.3 µM.
UniProt P00352, sequence (P00352 whole entry, looked up): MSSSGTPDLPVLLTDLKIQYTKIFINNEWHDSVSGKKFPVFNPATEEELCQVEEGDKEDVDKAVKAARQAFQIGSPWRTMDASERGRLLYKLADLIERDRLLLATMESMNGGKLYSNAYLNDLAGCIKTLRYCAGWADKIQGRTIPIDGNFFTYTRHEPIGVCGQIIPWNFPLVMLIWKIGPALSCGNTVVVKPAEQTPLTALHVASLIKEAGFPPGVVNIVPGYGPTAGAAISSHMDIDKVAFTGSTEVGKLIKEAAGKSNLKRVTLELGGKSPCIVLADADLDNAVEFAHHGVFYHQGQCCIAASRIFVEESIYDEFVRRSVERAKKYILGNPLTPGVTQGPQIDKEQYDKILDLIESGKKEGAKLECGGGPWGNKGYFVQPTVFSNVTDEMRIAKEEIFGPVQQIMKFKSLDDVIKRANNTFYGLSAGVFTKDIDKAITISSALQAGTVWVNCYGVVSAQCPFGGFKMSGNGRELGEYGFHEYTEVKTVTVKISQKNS
Potency means the concentration at half of the fitted maximal effect; tags describe the fitted curve by direction and shape.

Row | Compound | Potency
1 | O=C(NC(=S)Nc1ccc(CN2CCCCC2)cc1)c1ccco1 | inconclusive [inhibitor, single point]
2 | COCCn1c(-c2ccccc2)cnc1SCC(=O)Nc1cccc2ccccc12 | inconclusive [inhibitor, single point]
3 | NC(=S)N/N=C/c1ccc(-c2cc(Cl)c(Cl)cc2Cl)o1 | inconclusive [inhibitor, single point]
4 | O=C(O)Cc1csc(Nc2cccc(Cl)c2)n1 | inactive
5 | COc1ccc(C2CC(c3ccc4ccccc4c3)=NN2C(=O)CN2C(=O)CCC2=O)cc1 (stereo not given) | inconclusive [inhibitor, partial curve]
6 | COc1cc(C2NC(=S)NC3=C2CCc2ccccc23)cc(OC)c1OC (stereo not given) | inconclusive [inhibitor, partial curve]
7 | Nn1c(Cc2cccc3ccccc23)nnc1SCC(=O)N1CC(=O)Nc2ccccc21 | active: 17.8 µM
8 | Cc1ccc(S(=O)(=O)/N=C(\N)Nc2nc(C)c3ccc(C)cc3n2)cc1 | inactive
9 | COc1ccccc1NC(=O)CC(NC1CCCCC1)C(=O)O (stereo not given) | inactive
10 | CC1(C)CC(=O)C2=C(C1)Nc1ccccc1NC2c1ccccn1 (stereo not given) | inconclusive [inhibitor, single point]
11 | Cc1nc(/C=C/c2ccccc2)[nH]c(=O)c1-c1ccccc1 | inconclusive [inhibitor, single point]
12 | COc1cc2c(cc1OC)C1=C(C#N)CCC(=NC(=O)c3ccc(Cl)cc3)N1CC2 | inactive
13 | Cc1cc(C)cc(NC(=O)N2CCCN(Cc3c(F)cccc3Cl)CC2)c1 | inactive
14 | S=c1[nH]nc(-c2ccccn2)n1/N=C/c1ccc(Cl)c(Cl)c1 | inactive
15 | CC(=O)c1cccc(NC(=O)CN(Cc2ccccc2)S(C)(=O)=O)c1 | inconclusive [inhibitor, single point]
16 | CCN1C=CC(=C2C(=O)c3ccccc3C2=O)C=C1 | inconclusive [inhibitor, partial curve]
17 | COCC(C)NCc1ccc(C)cc1C (stereo not given) | inconclusive [inhibitor, single point]
18 | CCN(CC)c1nc(OCCNC(=O)Nc2ccccc2)nc(N(CC)CC)n1 | inconclusive [inhibitor, partial curve]
19 | O=C1OC(/C(=C\Nc2ccc(F)cc2F)[N+](=O)[O-])c2ccccc21 (stereo not given) | inconclusive [inhibitor, full curve]
20 | Cc1ccc(C2SCCN2C(=O)c2ccc([N+](=O)[O-])cc2)cc1 (stereo not given) | inconclusive [inhibitor, single point]
